We go through 14 compounds from the supplement of paper PMC9446081.

Screen size: about 39,000 compounds; about 220 (0.56%) showed activity. The list shows a part of the results.
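Further: static incubation at 37 °C against the wild-type strain, values averaged over two biological replicates.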

This experiment has as its system Escherichia coli K-12 BW25113. Description: relative growth (OD600 normalised to plate interquartile mean) (fraction); higher = less growth inhibition, active = 0.2 or less. To be noted: 50 µM; LB; incubation time: overnight (16-24 h).
Turning to `CCCNC(=O)N(C)C[C@H]1Oc2cc(C#Cc3cccc(F)c3)ccc2S(=O)(=O)N([C@H](C)CO)C[C@@H]1C`, the relative growth is inactive: 1.01. Take `O=C(C[C@H]1CC[C@H]2[C@@H](COC[C@@H](O)CN2C(=O)Nc2ccc(C(F)(F)F)cc2)O1)NCCc1ccncc1`: the relative growth is inactive: 0.889. Turning to `Cc1noc(C)c1S(=O)(=O)N(C)C[C@H]1OCCCC[C@@H](C)Oc2ccc(NC(=O)CCCCCC(=O)Nc3ccccc3N)cc2C(=O)N([C@@H](C)CO)C[C@@H]1C`, the relative growth was inactive: 0.982. For `C[C@@H]1CN([C@@H](C)CO)C(=O)Cc2cc(NC(=O)CCCCCC(=O)Nc3ccccc3N)ccc2O[C@@H]1CN(C)Cc1ccc(C(F)(F)F)cc1`, the relative growth is inactive: 1.04.

Take `COc1ccc(C(=O)Nc2ccc(CN3C(=O)[C@@]4(O[C@@H](CC(=O)N5Cc6ccccc6C[C@H]5CO)[C@H]([Si](C)(C)c5ccc(OC)cc5)[C@H]4C)c4ccccc43)cc2)cc1`: the relative growth was inactive: 0.945.

Turning to `CC(=O)c1ccccc1OC[C@@H](O)CN(CCO)CCO`, the relative growth is inactive: 0.961. Consider `Cc1ccc(S(=O)(=O)Nc2ccc3c(c2)CC(=O)N([C@H](C)CO)C[C@H](C)[C@H](CN(C)Cc2ccc(Cl)c(Cl)c2)O3)cc1`, for which the relative growth was inactive: 1.02. Consider `C[C@@H]1CCCCO[C@@H](CN(C)Cc2ccc(C(F)(F)F)cc2)[C@@H](C)CN([C@@H](C)CO)C(=O)c2cc(NC(=O)c3ccncc3)ccc2O1`, for which the relative growth is inactive: 0.984. `Cc1ccc(S(=O)(=O)N(C)C[C@@H]2Oc3ccc(NC(=O)C4CC4)cc3CC(=O)N([C@H](C)CO)C[C@H]2C)cc1`: the relative growth is inactive: 0.99.

On to `COc1ccc([Si](C)(C)[C@H]2[C@H](CC(=O)N3CCC[C@H]3CO)O[C@@]3(C(=O)N(Cc4cccc(N5C(=O)COc6ccccc65)c4)c4ccccc43)[C@@H]2C)cc1`, for which the relative growth was inactive: 1.03. As for `C[C@H](CO)N1C[C@H](C)[C@@H](CN(C)C(=O)Nc2ccc(F)cc2)Oc2ccc(NC(=O)Nc3cccc4ccccc34)cc2CC1=O`, the figure is inactive: 1.01; as for `O=C1O[C@@H](c2ccccc2)[C@@H](c2ccccc2)N2[C@@H](c3ccc(O)cc3)[C@]3(C(=O)Nc4ccc(C#CC5(O)CCCCCC5)cc43)[C@@H](C(=O)N3CCCCCCC3)[C@H]12`, inactive: 1.02. The result for `COc1ccc2c3c([nH]c2c1)[C@@H](CO)N(C[C@]13CN(C1)C(=O)Cc1cccnc1)S(=O)(=O)c1ccc(cc1)C` reads inactive: 0.987. The result for `O=C(CCCCCNC(=O)OCc1ccc(CO[C@@H]2C[C@H](C3CCCCC3)C=C(C(=O)N3CCN(Cc4ccc5c(c4)OCO5)CC3)O2)cc1)NO` reads inactive: 0.995.
